Test results as given in the supplement of paper PMC11417369.
± gives the standard deviation of the averaged measurements. This is one part of the list.

Each sequence was assayed on PfAP2-G AP2 domain (GST-tagged) (assay: gcPBM binding intensity (ln(normalized median fluorescence intensity)); higher = stronger DNA binding).
Method in brief: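 Each value is the highest Masliner-normalised natural-log median intensity across replicate spots of either orientation of a probe. The probes were primer-extended double-stranded 36-bp intergenic genomic sequences on an Agilent 4 × 180k array, alongside negative controls, exposed for 1 h to GST-tagged P. falciparum DNA-binding domains expressed in E. coli. Bound protein was picked up with Alexa488 anti-GST antibody and scanned at 488 nm.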

Row | Sequence | gcPBM binding intensity (ln)
1 | ATTTTTTTGTGTTTGGTACACACGTTATAAAAAATA [CACACA_site1345] | 11.1 ± 0.77
2 | TTGGTAATAATTTGAGGTACACTGTATAAATTTTTT [XGTACX_site909] | 11.5 ± 0.97
3 | TATGATACATAATATACATGCATACACAACATTCAG [TGCATGCA_site487] | 9.89 ± 0.071
4 | TTTTGGATCATTTGTTGTACATATGCAAAAAAAAAA [XGTACX_site3157] | 11.3 ± 0.91
5 | AAAAAAATAAAATTATATAAAATAAATTTTTATAAT [GTGCAC_negctrl_site587] | 9.42 ± 0.099
6 | GGAAAATACATTCCAGTGCATTAATTTATTCAACGT | 9.925 ± 0.092
7 | GATATGTGACGTTTGGTATTTTTGATGTTGGTAGGA [CACACA_negctrl_site1448] | 10.19 ± 0.035
8 | TTAAGATACAAAAAAGTGCATATTTTTTAACAAAAA | 10.1 ± 0.11
9 | ATATTACCCATATATGCACACATTGTAGTTATTTAT [CACACA_site2636] | 10.1 ± 0.22
10 | ATATAATTACCATATGGTACACACATATATATATGT [XGTACX_site7393] | 11.3 ± 0.62
11 | TTTTGTAGCAAAAAATAGGAAAAAAAAAAATTAAAT [GTGCAC_negctrl_site8] | 9.915 ± 0.007
12 | TACGATTAAAAAAAATGTACAGATTTTTATAGAATA [XGTACX_site6561] | 11 ± 0.66
13 | AAAAAAAAAAAAAAAACACACATAAATAGCTCAAAT [CACACA_site3973] | 10.2 ± 0.11
14 | CACATACCCATACAAACACACATTATATATATATAT [CACACA_site4965] | 10.2 ± 0.17
15 | ATATCGTGTGCATTAACACACATTTATTTGAATAAA [CACACA_site7162] | 10.1 ± 0.3
16 | GATATATAAATAGATACACACATACATACATACATA [CACACA_site6260] | 10 ± 0.17
17 | CTTATGTTTTTTAAGTGTACATATTATACGTATTAT [XGTACX_site1176] | 11.6 ± 0.95
18 | TAAATATATATAATTACACACTTTTCTATAATATGA [CACACA_site711] | 9.8 ± 0.11
19 | ACAAATAAAAATATTACACACACTATTCTAGTGATA [CACACA_site6812] | 9.63 ± 0.17
20 | GACAAATTATTGTGTACACAATATTATTATATATAC [CACACA_site6020] | 11.6 ± 0.89
21 | TATAATACATTATATTGTACTATATTATAATAAATT [XGTACX_site5934] | 10.8 ± 0.51
22 | TTAAGATATATAAAGAGTACACATAAGAGTAATGCT [XGTACX_site58] | 11.4 ± 0.95
23 | AACAGATATATATGTAGTACATGTTCTAGATATTTT [XGTACX_site1208] | 11.4 ± 0.84
24 | AATAATTGTTAAAGGTGTACAATACGTATGTAAGAA [XGTACX_site1328] | 11.5 ± 0.95
25 | AATATAAACATAGATAGATAAATAAATAAATAAACA [GTGCAC_negctrl_site567] | 9.63 ± 0.18
